Test results: US20120165265A1 (published 2012)

B1: YFP-CAD (other)
chain: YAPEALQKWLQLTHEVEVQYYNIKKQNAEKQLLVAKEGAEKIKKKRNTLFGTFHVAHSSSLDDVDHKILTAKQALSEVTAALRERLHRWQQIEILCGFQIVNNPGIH
notes: not shown: YFP tag from vector pDS-YFP-X
B2: GST (other)
chain: not shown
notes: Negative control of the pull-down; also called GST alone

Key:
myc-Orai1 = molecular target: T1, myc-Orai1 (UniProt Q96D31 1-301); assay: fluorescence localisation in HEK 293 cells
T1 construct: also called N-terminally myc-tagged WT Orai1; not shown: N-terminal myc tag
Experimental: Confocal Microscopy. 6 h after transfection, HEK 293 cells were plated onto sterilized coverslips coated with poly-D-lysine and maintained in complete DMEM for an additional 12-18 h before imaging in Ringer's solution containing (in mM): 155 NaCl, 4.5 KCl, 2 CaCl2, 1 MgCl2, 10 D-glucose, and 5 Na-Hepes, pH 7.4. To deplete stores, cells were treated with 1 μM TG in Ca2+-free Ringer's (prepared by substituting 2 mM MgCl2 and 1 mM EGTA for CaCl2) for 10 min. eGFP and mCherry were excited simultaneously at 488 and 594 nm, respectively, on a Leica SP2 AOBS inverted confocal microscope equipped with a PL APO 100×/NA 1.4 oil immersion objective. Fluorescence emissions were collected at 615-840 nm (mCherry) and 510-570 nm (eGFP). All experiments were performed at 22-25° C.
CAD Associates with Orai1 in vivo and in vitro. Because cytosolic CAD is a potent activator of Orai1 channels and is not associated with the ER, we hypothesized that CAD binds to Orai1. To test this idea, we first expressed YFP-CAD with or without myc-Orai1 in HEK 293 cells and examined its intracellular localization. […] GFP-myc-Orai1 was detected in the immunoprecipitates from cells co-expressing CAD and Orai1 but not from cells expressing CAD or Orai1 alone (FIG. 3B).

EE-Orai1-His8 = molecular target: T2, EE-Orai1-His8 (UniProt Q96D31 1-301, glycosylated and unglycosylated forms); assay: GST pull-down with purified proteins
T2 construct: Purified from Hi5 insect cells in DDM; also called Orai1 protein containing C-terminal octa-histidine and N-terminal EEYMPME (EE) tags; not shown: C-terminal His8 (octa-histidine) tag
Experimental: GST Pull-down Assays. For GST pull-down assays, either GST-CAD (0.16 μM) or GST (0.15 μM) was incubated with EE-Orai1-His8 (0.1 μM) for 1 h in buffer containing (in mM): 20 Tris-HCl (pH 8.0), 150 NaCl, 20 imidazole, and 1 DTT with protease inhibitors. After addition of glutathione sepharose the beads were centrifuged, washed with the above buffer, and the precipitated proteins were eluted with boiling SDS and analyzed by SDS-PAGE and Western blotting.

Chain of myc-Orai1 (Q96D31 whole entry): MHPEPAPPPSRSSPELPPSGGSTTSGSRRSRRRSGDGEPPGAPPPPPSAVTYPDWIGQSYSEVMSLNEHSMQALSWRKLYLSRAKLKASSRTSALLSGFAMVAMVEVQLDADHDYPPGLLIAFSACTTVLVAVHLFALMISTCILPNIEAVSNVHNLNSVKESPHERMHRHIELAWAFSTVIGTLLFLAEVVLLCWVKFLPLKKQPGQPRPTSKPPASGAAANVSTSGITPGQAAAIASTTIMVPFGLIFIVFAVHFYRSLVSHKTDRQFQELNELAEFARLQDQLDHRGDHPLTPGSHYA
Chain of EE-Orai1-His8 (Q96D31 other isoform, or with tags, fused parts or gaps limits assumed): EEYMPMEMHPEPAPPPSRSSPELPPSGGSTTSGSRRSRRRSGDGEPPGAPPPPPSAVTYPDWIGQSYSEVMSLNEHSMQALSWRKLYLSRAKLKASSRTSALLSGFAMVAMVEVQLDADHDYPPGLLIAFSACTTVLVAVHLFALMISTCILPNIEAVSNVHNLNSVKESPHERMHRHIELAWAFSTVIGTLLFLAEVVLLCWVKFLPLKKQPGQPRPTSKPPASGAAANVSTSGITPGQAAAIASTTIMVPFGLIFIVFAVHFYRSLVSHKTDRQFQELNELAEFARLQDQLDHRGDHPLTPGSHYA

Row | Binder | binding result (myc-Orai1) | binding result (EE-Orai1-His8)
1 | B1 | binds | –
2 | B2 | – | no binding (tested: GST 0.15 µM with EE-Orai1-His8 0.1 µM)
